# Measurements from PubChem BioAssay AID1240 (Sanford-Burnham Center for Chemical Genomics, 2008).
# In all, about 50,000 compounds went through this assay and about 800 (1.6%) showed an effect of 50% or more. Some of the results follow.
# Molecular target: Bcl-2-like protein 10 (Homo sapiens) (UniProt Q9HD36)
# Assay: Phenotype converters, Bcl-B/TR3 peptide binding displacement, primary biochemical FP (AID 1240);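 note: 0% = Bcl-B with tracer peptide and DMSO and 100% = tracer peptide lacking Bcl-B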
# Conditions: GST-Bcl-B / FITC-TR3 peptide fluorescence polarization; stronger effect = higher value; compound at 3.75 mg/L
# Chain of UniProt Q9HD36 (Q9HD36 whole entry, looked up): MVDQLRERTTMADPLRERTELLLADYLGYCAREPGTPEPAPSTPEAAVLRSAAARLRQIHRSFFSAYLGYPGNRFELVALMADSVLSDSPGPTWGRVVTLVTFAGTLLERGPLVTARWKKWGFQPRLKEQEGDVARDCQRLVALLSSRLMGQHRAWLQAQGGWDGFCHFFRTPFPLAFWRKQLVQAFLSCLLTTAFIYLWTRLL
row,Compound,displacement [%]
1,CCCOc1ccc(C(=S)N2CCN(c3cccc(C)c3)CC2)cc1,13.1
2,Cc1nn2c3ccccc3nc2n1CCN1CCOCC1,0.4
3,COc1ccccc1NC(=O)C1=C(C)NC(SCC(=O)c2ccccc2)=C(C#N)C1c1ccccc1 (stereo unspecified),0.3
4,O=C(CC1Nc2ccccc2NC1=O)Nc1cccc(C(=O)O)c1 (stereo unspecified),-2.4
5,Cc1ccc2c(Cl)c(C(=O)Nc3ncccc3Cl)sc2c1,5
6,COc1ccccc1NCn1nnc2ccccc21,15.1
7,COc1cc2c(cc1NC(=O)C/C(C)=N/NC(=O)c1ccoc1C)oc1ccccc12,-22.8
8,CC1CCN(CCCCOc2cccc3ccccc23)CC1,-2.7
9,COc1ccc(C(=O)CSc2nc(N)cc(=O)[nH]2)cc1,14.1
10,O=C(CCc1n[nH]c(=O)[nH]c1=O)N/N=C/c1ccc([N+](=O)[O-])cc1,2.6
11,O=C(N/N=C/c1cccc([N+](=O)[O-])c1O)/C(=C\c1ccc2c(c1)OCO2)NC(=O)c1ccccc1,28.8
12,O=S(=O)(NCCCO)c1ccc2c(c1)Cc1cc(S(=O)(=O)NCCCO)ccc1-2,-1.5
13,CC1CCCN(C(=O)Cc2ccc(Br)cc2)C1 (stereo unspecified),12.1
14,CC(C)(C)c1ccc(C(=O)N/N=C/c2ccc(O)cc2)cc1,10.6
15,Cc1cccc(N2CCN(C(=O)Nc3ccc(Cl)cc3)CC2)c1C,11.4
16,CN(C)CCNC(=S)NC(=O)C12CCC3CC(CC(C3)C1)C2,-11.3
17,COc1ccccc1N1CCN(/N=C\c2cccc(Cl)c2)CC1,-3.1
18,CCOc1ccc(C(=O)NCC2(C)CC(NC(=O)c3ccc(OCC)cc3)CC(C)(C)C2)cc1 (stereo unspecified),7.1
19,Cc1cc(OCC(=O)Nc2ccc(O)c(-c3nc4ccccc4o3)c2)cc(C)c1Cl,-1.4

row,Compound,displacement [%]
1,O=C(O)C1CCCCC1C(=O)N1CCN(c2ccc(F)cc2)CC1 (stereo unspecified),-7.8
2,COc1ccc(CCNC(=O)C2CC(=O)N(c3ccccc3)C2)cc1OC (stereo unspecified),1.3
3,O=C1c2ccccc2NC(c2ccc3c(c2)OCO3)N1c1ccc(F)cc1 (stereo unspecified),9.9
4,COC(=O)CN(c1cc(Cl)ccc1OC)S(=O)(=O)c1ccccc1,14.7
5,O=S(=O)(NCc1ccc2c(c1)OCO2)c1ccc(Cl)cc1Cl,-9.7
6,O=C(Nc1nc2ccccc2[nH]1)c1ccc(Cl)c(Cl)c1,-12.9
7,Cc1ccsc1C1NC(=O)c2c(sc3c2CCCC3)N1 (stereo unspecified),1.6
8,COc1ccccc1/C=C1\SC(=S)N(C2CCS(=O)(=O)C2)C1=O (stereo unspecified),137
9,CCOc1cc(/C=C2/SC(=S)N(C)C2=O)cc(Br)c1OCCOc1cccc(C)c1,-11.5
10,CCC(=O)Nc1ccc(NC(=O)c2ccc([N+](=O)[O-])cc2)cc1,8.5
11,O=C(c1ccc(Cl)c(Cl)c1)N1CCN(c2cccc(Cl)c2)CC1,2.7
12,O=C1NC(=O)N(c2ccc(Cl)cc2)C(=O)/C1=C/c1ccc(Oc2ccc([N+](=O)[O-])cn2)cc1,2
13,COc1ccc(Br)cc1/C=C/C(=O)N1CCN(c2ccc([N+](=O)[O-])cc2)CC1,12.3
14,Cc1nc(C)c(-c2ccccc2)c(=O)[nH]1,13
15,O=C(N/C(=C/c1cccc(Br)c1)c1nc2ccccc2[nH]1)c1ccccc1,8.7
16,COc1cc(/C=N\NC(=O)COc2cccc(Cl)c2)ccc1OC(=O)c1cc(OC)c(OC)c(OC)c1,0.2
17,COc1ccc(CCNC(=O)CCc2ccccc2)cc1,-6
18,O=C(O)CN1C(=O)/C(=C\c2ccccc2Sc2ccc(Cl)cc2)SC1=S,9.8
19,Cc1ccc(OCC(=O)Nc2cccc(C#N)c2)c(C)c1,0.4

row,Compound,displacement [%]
1,COc1ccc(CNCc2cccnc2)cc1,0
2,Cc1cccc(-n2c(C)cc(/C=N\NC(=O)c3cccs3)c2C)c1,-18.2
3,O=[N+]([O-])c1ccccc1/C=N/Nc1nnc(-c2ccccc2)c(-c2ccccc2)n1,5.2
4,Cc1ccc(N2C(=O)c3ccccc3NC2c2ccccc2O)cc1 (stereo unspecified),-8.5
5,COc1ccc2[nH]cc(CCNC(=S)Nc3ccccc3)c2c1,-19
6,O=C(O)CCc1nc2ccc(O)cc2[nH]1,5.5
7,CC(=O)NC(c1ccccc1Cl)c1c(OC(C)=O)ccc2ccccc12 (stereo unspecified),9
8,Cc1ccccc1N(C=O)C(=O)C1C(C)C2C=CC1C21CC1 (stereo unspecified),-4.1
9,O=C(NCCCNc1ccc([N+](=O)[O-])cc1C(F)(F)F)c1cc(F)c(F)cc1Cl,7.8
10,COc1ccc(N2C(=O)/C(=C/c3ccc(OCC(=O)O)c(Br)c3)C(=O)NC2=S)cc1,-0.3
11,COc1ccc(-c2ccc(/C=C3/SC(NC(C)=O)=NC3=O)o2)c([N+](=O)[O-])c1,4.9
12,COC(=O)C(C)NC(=O)CCC1CCCCC1 (stereo unspecified),5.4
13,COCCOC(=O)c1c(C)oc2ccc(OC(=O)c3ccc(OC)cc3)cc12,9.4
14,Cc1ccc(C2Nc3cccc4cccc(c34)N2)s1,9.3
15,C=CCC1(N(CCc2ccccc2)C(C)=O)CCCCC1,1.4
16,Cc1ccc(N2CCN(/N=C\c3ccccc3[N+](=O)[O-])CC2)cc1,-3.2
17,O=C(Nc1ccc2nn(-c3ccc(F)cc3)nc2c1)c1ccco1,6.6
18,CCOC(=O)C1=C(O)/C(=C/c2ccc(O)c(OCC)c2)SC1=Nc1cccc(Cl)c1,-17.3
